# Where “and” joins values, the source holds several entries; their conditions need not be identical. Equal values may be shown once. This list was built around the results that the source calls inconclusive (neither active nor inactive); the mix of calls is not that of the screen. Where the call is inconclusive, the potency comes from a doubtful curve fit. Calls of active or inactive are those of the source. Calls come from the whole dose curve; as a rule, active = well fitted inhibition curve with a large enough effect; inconclusive = small, poorly fitted or top-dose-only effect, or effect the other way; inactive = flat fitted curve, though single readings scatter.
# Assay: qHTS for Inhibitors of Plasmodium falciparum (GB4) proliferation (AID 504315); note: nearly all actives have a fitted effect of over 50% in size;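 for activity change, negative = inhibition: 0% = DMSO vehicle and -100% = 0.29 µM artemisinin control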
# Details: P. falciparum GB4 in erythrocytes, SYBR Green DNA, 72 h; activity change, negative = inhibition: at 6.7 µM (top of the series)
# Summary of the method: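 Erythrocytes infected with P. falciparum line (0.3% parasitemia, 2.5% hematocrit final) incubated with compounds 72 h at 37 °C, 5% CO2; SYBR Green lysis buffer added, fluorescence read next day. Normalized to 0.29 uM artemisinin and DMSO.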
# Potency is the fitted concentration of half-maximal effect; tags give direction and shape of the fitted curve.
SMILES,Potency,"activity change, negative = inhibition"
C=CCN1c2ccccc2[C@]23C[C@@H](C(=O)OC)N(S(=O)(=O)c4ccc([N+](=O)[O-])cc4)C2=NC(C(=O)OC)=C(C(=O)OC)[C@H]13,active: 1.51 µM,
COC(=O)C1=C(C(=O)OC)[C@@H]2N(C)c3ccccc3[C@@]23C[C@@H](C(=O)OC)N(S(=O)(=O)c2ccc([N+](=O)[O-])cc2)C3=N1,active: 1.69 µM,
COC(=O)N1C(/C=C/C=C/c2ccc(OC)cc2)=Cc2ccccc2C1CC(C)=O (configuration not stated),"inconclusive: 2.39 µM [inhibitor, single point]",
C=CCN1c2ccccc2[C@]23CCC(=O)N(CCOC)C2=NC(C(=O)OC)=C(C(=O)OC)[C@H]13,"inconclusive: 0.6 nM [inhibitor, full curve, poor fit] and inactive",
COC(=O)C1=C(C(=O)OC)[C@@H]2N(C)c3ccccc3[C@@]23C[C@@H](CO)N(C(=O)NC2CCCCC2)C3=N1,"inconclusive: 2.69 µM [inhibitor, single point]",
CC1=CC[C@@H](COc2ccccc2)O[C@@]2(C1)C(=O)N(Cc1ccccc1C(F)(F)F)c1ccccc12,"inconclusive: 4.26 µM [inhibitor, single point]",
C[C@@H]1C=CCC(=O)N[C@@H](c2ccc3ccccc3c2)[C@H](C)C=CCC(=O)N[C@@H]1c1ccc2ccccc2c1,"inconclusive: 1.51 µM [inhibitor, partial curve]",
COC(=O)C1=C(C)N(Cc2ccccc2)C(=NCCc2ccc([N+](=O)[O-])cc2)NC1c1cccc(F)c1 (configuration not stated),"inconclusive: 0.849 µM [inhibitor, partial curve]",
CC#CCN1c2ccccc2[C@]23C[C@@H](C(=O)OC)N(S(=O)(=O)CCCC)C2=NC(C(=O)OC)=C(C(=O)OC)[C@H]13,"inconclusive: 1.69 µM [inhibitor, partial curve]",
C=CCN1c2ccccc2[C@]23C[C@@H](C(=O)OC)N(S(=O)(=O)c4c(C)noc4C)C2=NC(C(=O)OC)=C(C(=O)OC)[C@H]13,,inactive: -13%
COC(=O)C1=C(C)N(Cc2ccccc2)C(=NCC2CC2)NC1c1cccc(C(F)(F)F)c1 (configuration not stated),"inconclusive: 1.9 µM [inhibitor, partial curve]",
COC(=O)C1=C(C(=O)OC)[C@@H]2Nc3ccccc3[C@@]23C[C@@H](C(=O)OC)N(S(=O)(=O)c2ccc4c(c2)OCCN4C)C3=N1,active: 1.69 µM,
COC(=O)C1=C(C(=O)OC)[C@@H]2N(C)c3ccccc3[C@@]23C[C@@H](C(=O)OC)N(S(=O)(=O)c2ccc(C(F)(F)F)cc2)C3=N1,active: 2.13 µM,
COC(=O)N1[C@H]2CC[C@@]3(C)C=C(C)O[C@]1(C)C3c1ccccc12,,inactive: -6.74%
C=CCN1c2ccccc2[C@]23C[C@@H](C(=O)OC)N(S(=O)(=O)c4ccc(C(F)(F)F)cc4)C2=NC(C(=O)OC)=C(C(=O)OC)[C@H]13,"inconclusive: 3.01 µM [inhibitor, single point]",
COC(=O)C1=C(C(=O)OC)[C@@H]2N(C)c3ccccc3[C@@]23C[C@@H](C(=O)OC)N(S(=O)(=O)c2ccc(Br)cc2)C3=N1,active: 2.13 µM,
CC#CCN1c2ccccc2[C@]23C[C@@H](C(=O)OC)N(C(=O)C4CCC4)C2=NC(C(=O)OC)=C(C(=O)OC)[C@H]13,"inconclusive: 1.9 µM [inhibitor, single point]",
COc1ccc(-c2nc3c(c4c2C[C@H](c2ccccc2)OC4)CN(C(=O)C2CCCCC2)CC3)c(C)c1,"inconclusive: 2.13 µM [inhibitor, single point]",
C[C@H]1Cc2c(COc3ccccc3)nc3c(c2CO1)CN(C(=O)c1ccco1)CC3,"inconclusive: 1.69 µM [inhibitor, single point]",
C=CCN1c2ccccc2[C@]23C[C@@H](C(=O)OC)N(S(=O)(=O)c4ccc5c(c4)OCCN5C)C2=NC(C(=O)OC)=C(C(=O)OC)[C@H]13,"inconclusive: 4.26 µM [inhibitor, single point]",
COC(=O)CC=C[C@@H](C)[C@H](O)c1ccccc1Br,"inconclusive: 2.13 µM [inhibitor, single point] and inconclusive: 1.51 µM [inhibitor, single point]",
CC(CCN1CCc2nc(-c3ccccc3)c(-c3ccccc3)cc2C1)=NOC[C@@H](O)[C@H]1O[C@@H]2OC(C)(C)O[C@H]2[C@@H]1O,inconclusive: 0.0004 µM [inhibitor],

# Source: PubChem BioAssay (NCATS)
